Reference: patent US20130287688A1, “NOVEL COMPOSITIONS AND USES OF ANTI-HYPERTENSION AGENTS FOR CANCER THERAPY” (XTUIT PHARMACEUTICALS, INC., priority 2010, published 2013)
Several values for one entry are separate records, joined by “and”; a condition that tells them apart may be missing. Equal values may be shown once.

Assays:
AK4.4 pancreatic tumors [1] = assay: Pancreatic tumor growth and survival; type: in vivo, mice; settings: for tumor growth rate: monotherapy (losartan 40 mg/kg daily or 5-FU 60 mg/kg)
Method: Statistical tests were corrected for multiple comparisons using the Holm-Bonferroni method.
(§1) The mice were then treated with either 60 mg/kg 5-FU or an equal volume of saline by intravenous injection on days 9 and 13 after implantation. Tumors were extracted on day 14 for measurement using calipers. Tumor growth was quantified using the size at day 14. […] Metastatic burden was assessed at death.

AK4.4 pancreatic tumors [2] = assay: Tumor matrix level histology (collagen I); parameters: species or system FVB mouse; settings: mouse, in vivo
Method: Collagen levels were used as a metric of matrix production as described in Diop-Frimpong et al., Proc Nall Acad Sci USA. […] Next, solid stress in these tumors was measured using recently established technique described in Stylianopoulos T, et al., Growth-induced mechanical stress in murine and human tumors: causes, consequences and remedies. under review.
Vessel perfusion, matrix level, and hypoxia histology: For breast tumors, mice bearing orthotopic E0771 were split into treatment groups, time-matched for time after implantation and size-matched for tumor volume at this time (−100 mm^3). For pancreatic tumors, mice bearing orthotopic AK4.4 were split into treatment groups, size-matched for tumor volume (˜22 mm^3), 6 days after implantation. […] On the day of the last treatment, mice were slowly (−2 min) injected with 100 μL of 1 mg/mL biotinylated lectin (Vector Labs), administered retro-orbitally 5 min prior to tumor removal. For hypoxia studies, the mice were also injected with 60 mg/kg of 10 mg/mL pimonidazole 1 hr prior to tumor removal. […] For matrix staining, collagen I was detected using the LF-67 antibody provided by Dr. Larry Fisher (National Institute of Dental Research, Bethesda, Md.).
Histological image analysis: Eight random images (four interior, four periphery) at 20× magnification were taken from each slide using a confocal microscope (Olympus). […] For perfusion, the number of vessels counted by this program with colocalization of lectin and CD31 staining was divided by the number of vessels counted with CD31 staining. For vessel metrics, including diameter and density, the program determined the average size of all counted vessels and their length, as well as the count per area Images of collagen I stained sections were analyzed based on the area fraction of positive staining and on the average staining intensity (concentration) in each image. […] Images of hypoxia staining with pimonidazole were similarly analyzed for the area fraction of positive staining, counting the fraction of pixels above a threshold based on background intensity.

AK4.4 pancreatic tumors [3] = assay: Tumor volume measurement, pump vs pulsatile losartan; type: in vivo, male FVB mice; settings: for Average volume (Day 7): baseline
Text: On day 7 the tumors were all measured, and then the mice were randomized into one group of sixteen mice for subcutaneous injection of PBS as a control (Group 1), one group of twenty-two mice for subcutaneous pump administration of losartan (Group 2), and one group of twenty-two mice for subcutaneous injection of losartan in the absence of pump. Subcutaneous pumps with losartan were implanted on day 7 into the twenty-two mice in Group 2. All of the mice in Group 1 were subcutaneously dosed with PBS daily until day 14 or day 19. All of the mice in Groups 2 and 3 were dosed with losartan at 40 mg/kg daily until day 14 or day 19. Blood and tumor samples were collected either 2 hours or 6 hours post injection. The body weight was measured for all mice every other weekday (i.e., every Monday, Wednesday, and Friday) until the final dose on day 14 or 19. For PK/PD analysis, six mice in each group (three mice per time point in Groups 2 and 3) were euthanized on day 14 and day 19. Blood samples were collected and tumor weight was measured. To perform collagen I immunohistochemistry, the tumors of ten mice were collected following the measurement of the tumor volume.
The volumes of the tumors collected from the mice in Group 1 (subcutaneous injections of PBS as a control), Group 2 (subcutaneous pump administration of losartan at 40 mg/kg), and Group 3 (subcutaneous injections of losartan without pump at 40 mg/kg) were measured on day 19. The baseline tumor volumes were measured on day 7.

AK4.4 pancreatic tumors [4] = assay: Small-molecule drug (5-FU) delivery to tumors and organs; type: in vivo, mice; settings: losartan 40 mg/kg i.p. daily 7 days
Method: The accumulation of the small-molecule chemotherapeutic fluorouracil (5-FU) was then measured. Losartan improved 5-FU delivery to AK4.4 tumors, while not affecting delivery to normal organs (FIG. 29A).
Drug delivery: Mice bearing orthotopic AK4.4 were split into treatment groups, size-matched for tumor volume (−22 mm^3), 6 days after implantation. The mice were then treated with 40 mg/kg losartan or an equal volume of PBS intraperitoneally each day for 7 days. On the day of the last treatment, mice were injected with 100 mg/kg 5-FU, administered retro-orbitally 30 min prior to tumor and organ removal. The tissue was dabbed of excess blood then snap-frozen in liquid nitrogen for analysis. 5-FU was isolated from the tissues and measured using liquid-liquid extraction followed by reverse-phase high-performance liquid chromatography with tandem mass-spectrometry.

AK4.4 pancreatic tumors [5] = assay: Metastasis study: disease dissemination at death; type: in vivo, mice
Method: as §1

AK4.4 pancreatic tumors [6] = assay: Vessel perfusion histology (lectin / CD31); settings: 40 mg/kg
AK4.4 pancreatic tumors [7] = assay: Collagen I immunofluorescence quantitative image analysis; type: in vivo, mice; settings: for average percentage of collagen I positive area: PBS 16.26±1.72%; for percentage of collagen I positive area, representative image: PBS 22.356%; for average number of collagen I positive fibers per image: PBS 28.04±2.41
Method: Collection instruction: For PK/PD analysis, blood samples from euthanized mice were collected into lithium heparin tubes and inverted until centrifuged for 5 minutes in 4° C. at 6,000 rpm. Weighed tumors were homogenized with PBS. For immunohistochemistry analysis of collagen I, tumors were collected and sliced into two pieces. Both pieces were placed in 4% formaldehyde for up to 6 hours (0.5 hour per 1 mm) then rinsed three times with PBS. The tumor samples were stored in 30% sucrose for 24 hours and then frozen in 30×24 mm molds with optimum cutting temperature compound (OCT). The tumor samples were then stored in tissue cassettes at −80° C.
In Group 1, the mice were subcutaneously injected with saline as a control. In Group 2, losartan was administered to the mice via subcutaneous pump. In Group 3, losartan was administered to the mice via subcutaneous injections in the absence of pump.
Immunohistochemistry for collagen I was performed as described in the experimental protocols for Examples 11.
To quantify the positively stained area for collagen I and to identify the number of collagen I positive fibers, each collagen fiber was outlined and each collagen area was calculated from the collagen I positive area/total area. The average collagen I area and number of collagen I positive fibers were calculated by averaging the total ten fields from each tumor sample.

E0771 breast tumors = assay: Vessel perfusion histology (lectin / CD31); type: in vivo, SCID mouse; settings: 40 mg/kg i.p. daily, 6 days; control 23%
[8] = Group 2: subcutaneous pump 40 mg/kg
[9] = Group 3: subcutaneous injections without pump 40 mg/kg
[10] = losartan in combination with 5-FU
[11] = Group 2: losartan via subcutaneous pump
[12] = Group 3: losartan subcutaneous injection without pump

## O=c1[nH]cc(F)c(=O)[nH]1 [5-FU, fluorouracil]
AK4.4 pancreatic tumors [1]
  tumor growth rate: no significant effect

## NCCCC[C@H](N[C@@H](CCc1ccccc1)C(=O)O)C(=O)N1CCC[C@H]1C(=O)O [lisinopril]
AK4.4 pancreatic tumors [2]
  matrix production, collagen I area fraction: decreases

## CCCCc1nc(Cl)c(CO)n1Cc1ccc(-c2ccccc2-c2nn[nH]n2)cc1 [losartan]
AK4.4 pancreatic tumors [3]; Group 2 (subcutaneous pump)
  increase of average tumor volume from day 7 to day 19: 21 fold
AK4.4 pancreatic tumors [3]; Group 2 (subcutaneous pump), day 19
  average tumor volume smaller than that of Group 1 and Group 3: about 27%
AK4.4 pancreatic tumors [3]; [8]
  Average volume (Day 19): 235.98 mm^3
  Average volume (Day 7): 11.17 mm^3
AK4.4 pancreatic tumors [3]; Group 3 (subcutaneous injections without pump)
  increase of average tumor volume from day 7 to day 19: more than 30 fold
AK4.4 pancreatic tumors [3]; [9]
  Average volume (Day 19): 323.13 mm^3
  Average volume (Day 7): 10.33 mm^3
AK4.4 pancreatic tumors [4]
  accumulation of 5-FU in the normal organs: not affecting
AK4.4 pancreatic tumors [4]; 5-FU 100 mg/kg 30 min before removal
  increase in accumulation of 5-FU in tumors: 74%
AK4.4 pancreatic tumors [2]
  concentration of collagen I (staining intensity): reduces
  matrix production, collagen I area fraction: decreases
AK4.4 pancreatic tumors [5]; [10]
  incidence and size of metastases: appeared to reduce the incidence and size of metastases
AK4.4 pancreatic tumors [5]; losartan monotherapy
  metastasis: did not increase metastasis
AK4.4 pancreatic tumors [1]; losartan alone
  survival: did not shorten survival
AK4.4 pancreatic tumors [1]; [10]
  tumor growth: greatly slowed tumor growth
AK4.4 pancreatic tumors [1]
  tumor growth rate: no significant effect
AK4.4 pancreatic tumors [6]
  CD31+ vessel density: did not affect
AK4.4 pancreatic tumors [7]; [11]
  average percentage of collagen I positive area: 3.24±0.48% and 3.24%
  percentage of collagen I positive area, representative image: 4.453%
  average number of collagen I positive fibers per image: 10.01±1.28 and 10.01
AK4.4 pancreatic tumors [7]; [12]
  average percentage of collagen I positive area: 8.71±0.65% and 8.71%
  percentage of collagen I positive area, representative image: 11.34%
  average number of collagen I positive fibers per image: 17.93±1.14 and 17.93
E0771 breast tumors
  perfused vessel fraction: 43%
